# Experimental data published in article PMC4336329 (PLoS ONE, 2015).
# About 14,000 (4.5%) of roughly 310,000 compounds showed an effect of 50% or more. The effect is printed as a negative number. Some of the results follow.
# Target: human ether-à-go-go-related gene (hERG) potassium channel (human, UniProt Q12809)
# Test: primary screen, population patch clamp on CHO cells stably expressing hERG
# 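Also: peak tail current of the secondary pulse compared with the same well before compound.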
# Sequence of human ether-à-go-go-related gene (hERG) potassium channel (Q12809 whole entry, looked up): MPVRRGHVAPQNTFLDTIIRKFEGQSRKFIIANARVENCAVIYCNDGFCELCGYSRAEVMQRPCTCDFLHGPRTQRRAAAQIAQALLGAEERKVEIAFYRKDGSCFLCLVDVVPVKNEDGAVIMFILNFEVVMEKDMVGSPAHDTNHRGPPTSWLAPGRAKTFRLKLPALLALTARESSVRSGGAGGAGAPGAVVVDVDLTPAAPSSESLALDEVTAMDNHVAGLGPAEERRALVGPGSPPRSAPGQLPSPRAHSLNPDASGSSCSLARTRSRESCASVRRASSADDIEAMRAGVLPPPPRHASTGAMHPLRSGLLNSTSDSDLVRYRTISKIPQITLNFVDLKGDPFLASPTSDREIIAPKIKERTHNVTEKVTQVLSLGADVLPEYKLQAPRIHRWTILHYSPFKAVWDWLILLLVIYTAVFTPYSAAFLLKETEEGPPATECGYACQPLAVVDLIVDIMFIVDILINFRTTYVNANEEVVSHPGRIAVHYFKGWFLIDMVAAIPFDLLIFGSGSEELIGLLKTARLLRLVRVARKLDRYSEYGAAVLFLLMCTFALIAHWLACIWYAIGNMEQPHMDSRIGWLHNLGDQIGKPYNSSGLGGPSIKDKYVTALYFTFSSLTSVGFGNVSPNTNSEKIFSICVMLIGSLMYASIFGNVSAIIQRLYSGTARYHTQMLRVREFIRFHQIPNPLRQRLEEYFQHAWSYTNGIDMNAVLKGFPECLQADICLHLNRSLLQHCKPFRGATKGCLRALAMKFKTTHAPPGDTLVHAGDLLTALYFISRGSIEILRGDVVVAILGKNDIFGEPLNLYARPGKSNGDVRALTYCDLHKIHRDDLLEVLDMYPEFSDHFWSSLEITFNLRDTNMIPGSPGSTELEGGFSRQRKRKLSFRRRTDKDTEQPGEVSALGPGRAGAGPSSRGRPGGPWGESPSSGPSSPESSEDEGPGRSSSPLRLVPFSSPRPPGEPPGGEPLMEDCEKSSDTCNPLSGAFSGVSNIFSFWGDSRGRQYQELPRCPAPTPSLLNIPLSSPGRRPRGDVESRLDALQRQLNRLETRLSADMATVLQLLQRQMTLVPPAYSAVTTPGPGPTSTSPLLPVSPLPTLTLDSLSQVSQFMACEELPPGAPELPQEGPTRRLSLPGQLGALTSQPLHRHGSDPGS
row,SMILES,"hERG current change (%, negative = inhibition) at 10uM"
1,Cc1cc(C)cc(NC(=O)CCC(=O)Nc2nnc(C(C)C)s2)c1,24.1%
2,Cc1ccc(-n2c([C@@H]3C[C@H]3c3ccccc3)n[nH]c2=S)cc1,15.7%
3,COc1ccc(S(=O)(=O)NCCOc2ccccc2)cc1OC,0.452%
4,CN(CCCC1CCCC1)C(=O)c1cc(COc2c(F)cccc2F)on1,-14.6%
5,CCCCCC(=O)N/N=C(\C)c1ccccn1,-1.17%
6,COc1ccc(CNC(=O)Cn2nc(C)c3c(C)n(-c4ccc(C)cc4)nc3c2=O)cc1OC,8.32%
7,Cc1cc(C(F)(F)F)nc(SCc2ccc(C(=O)O)o2)n1,-2.51%
8,CCOc1ccc(S(=O)(=O)Nc2cccc(C(=O)N(C)Cc3cccc(OC)c3OC)c2)cc1,-11.6%
9,CCC(=O)N1CCN(c2ccccc2NC(=S)NC(=O)c2cccc([N+](=O)[O-])c2)CC1,-69.9%
10,Cc1cc(C)c2c(=O)[nH]c(SCc3ccccc3)nc2n1,7.73%
11,CCOc1ccc2oc(-c3ccccc3)c(C(=O)O)c2c1,5.16%
12,COc1ccc(NC(=S)NCc2ccc3c(c2)OCO3)cc1,18.7%
13,CC(=O)C(C(C)=O)C(c1ccccc1)c1nc2ccccc2[nH]c1=O (stereo not drawn),14.1%
14,CC[n+]1c(/C=C2/C=C(C)CC(C)C2)sc2ccccc21.[I-] (stereo not drawn),-3.25%
15,O=C(Nc1cc(Cl)ccc1-n1cncn1)C1CC1,-2.55%
16,Cc1oc(-c2ccccc2F)nc1CSCC(=O)NC1CC1,3.12%
17,CC1(/[N+]([O-])=C/c2ccc(Cl)cc2Cl)CCCCC1=O (stereo not drawn),6.3%
18,Cc1ccc(C(=O)Nc2nn(C)c3cccc(F)c23)cc1,15.9%
19,c1ccc2c(c1)[nH]c1c(NCC3CCCO3)ncnc12 (stereo not drawn),11%

row,SMILES,"hERG current change (%, negative = inhibition) at 10uM"
1,O=C(O)Cn1cc(CN2CCOCC2)c2ccccc21,2.23%
2,CC12CCC(C(=O)N3CCN(c4ccccc4)CC3)(CC1=O)C2(C)C (stereo not drawn),-19.4%
3,O=C(c1cc2c(ccc3ccccc32)o1)N1CCCCC1,-7.55%
4,COc1ccc(S(=O)(=O)N2CCc3ccccc32)cc1C(=O)NC1(C)CCS(=O)(=O)C1 (stereo not drawn),-22.2%
5,CC(=O)N(Cc1cc2cc(C)c(C)cc2n2nnnc12)CC1COCCO1 (stereo not drawn),-6.81%
6,COc1cc(/C=C/C(=O)O)cc(S(=O)(=O)Nc2ccccc2SC)c1OC,15.5%
7,CC(=O)c1c(C)[nH]c(C(=O)COc2ccc(C#N)cc2)c1C,-4.06%
8,Cc1cc(Br)c(OCC(=O)NN)c2c1CCC2,-6.78%
9,COc1ccccc1CNC(=O)CCS(=O)(=O)c1ccc2c(c1)CCN2C(C)=O,5.48%
10,CCOc1cccc2c1OC1(C)CC2NC(=O)N1c1cccc(F)c1 (stereo not drawn),12.4%
11,CCn1c(SCC(=O)NC2CC2)nnc1-c1ccccn1,12.7%
12,c1ccc(N2CCN(c3ncnc4scc(-c5cccs5)c34)CC2)cc1,9.87%
13,O=C(C1CC(=O)N(C2CCCC2)C1)N1CCN(c2ccccc2)CC1 (stereo not drawn),2.34%
14,O=C(O)c1ccc(N/N=C/c2cccc3cccnc23)cc1,7.83%
15,Cc1cc(NC(=O)C2CCCCC2)n(-c2nc3ccccc3[nH]2)n1,17.4%
16,COC(=O)c1ccc2nc(NC(=O)CCS(=O)(=O)c3ccccc3)sc2c1,-1.21%
17,Cc1ccccc1Nc1nc(N)nc(COC(=O)[C@@H](NC(=O)c2c(F)cccc2F)C(C)C)n1,-13.3%
18,COc1cccc(/C=N/NC(=O)c2nc(-c3ccccc3)cc(-c3ccccc3)n2)c1,-4.85%
19,CCOc1cc(-c2noc(CCC(=O)Nc3cccnc3)n2)ccc1OC,10.4%

row,SMILES,"hERG current change (%, negative = inhibition) at 10uM"
1,CCOC(=O)c1ccc(NC(=O)CCC(CC)C(=O)O)cc1 (stereo not drawn),3.24%
2,COc1ccc(N2CCN(CCNC(=O)c3ccc(NC(=O)C4CCCO4)cc3)CC2)cc1 (stereo not drawn),4.32%
3,Cn1ncc(Br)c1NC(=O)c1ccco1,24%
4,Cc1c(C(=O)NCc2ccccc2CN2CCCC2)oc2ccc(F)cc12,-74%
5,CC(C)n1nnnc1CN1CCN(C)CC1.Cl,8.81%
6,CC1CCc2nc(NC(=O)CSc3nc4ccccc4o3)sc2C1 (stereo not drawn),-0.0769%
7,Nc1nnc(CSCc2ccc(F)cc2)s1,-3.36%
8,O=C1Nc2cc(C(=O)N3CCN(c4ccccc4F)CC3)ccc2NC1CSCc1ccccc1F (stereo not drawn),17%
9,CCOC(=O)c1c(-n2c(C)cc(/C=C3\C(=O)NC(=O)N(C)C3=O)c2C)sc2c1CCCC2,11.4%
10,CCc1ccc(-c2cc(C)no2)cc1S(=O)(=O)Nc1ccc(C)cn1,11.4%
11,CCOC(=O)c1[nH]c(CN2CCN(c3ccc(OC)cc3)CC2)c(C(=O)OCC)c1C,-14.3%
12,O=C(Cn1c(=O)oc2cc(S(=O)(=O)N3CCCC3)ccc21)Nc1ccccc1Br,6.17%
13,COc1ccc(/C=N/c2nc3ccccc3n2C)cc1OC,-4.8%
14,CCN(CC)CCNC(=O)CCc1c(C)nc2c(c(C)nn2-c2ccc(C)c(C)c2)c1C,-62.3%
15,NC(=O)c1c(NC(=O)c2ccc(S(=O)(=O)N(CCCl)CCCl)cc2)sc2c1CCCCC2,-4.07%
16,CC(=O)c1sc(NC(=O)c2c(F)cccc2F)nc1-c1ccccc1,-30.7%
17,O=C(CSc1nnnn1C1CCCC1)N1CCOCC1,22%
18,O=C(Nc1ccc(F)cc1)Nc1cccnc1Cl,8.49%
19,O=C(COc1ccc(S(=O)(=O)N2CCCC2)cc1Cl)NC1CC1,-18.5%
